The source gives no read counts; variants with many changes may rest on few reads.
B1: OR4K15 (parent)
chain: GUUAACGGUCAUAGGCCAUGGAAACUAGGAGCACCAUUUCGCUGCCAGUGAAGAAAUGAACAAAGAAAAUCUGGGCCAGGCAGGCAUCAAAAGAAAUAGUCUUGCGCUCAACCAGAAAGUCUGUAAUCAUUUUAAGGGUA

Variants of: B1
Assay: self-cleavage, relative activity (ratio to wild type); higher = more cleavage; in vitro, sequencing; the parent is a self-cleaving ribozyme

Variant | self-cleavage
A33U A55G A68G G74U | 0.36
U37C A117G U120C A135U | 0.94
A33C U49C A95G | 1.65
U2C A56G A92U U130C | 0.88
C46U G65A G79C A86G | 0.09
U2C A62U A67G | 0.28
A13U A89G A92G A98U A111G | 0.04
A52G U72C A111G | 0.03
A13G C16G U49A C107U U108C | 0.13
A51U U87C U131C | 0.01
A11C A30G A59G A110G | 0.09
A5G U102C U108C | 0.11
A18U A47C U127C | 1.13
A51G A92G A94G G99A | 0.48
A23G A86U U87C U103C A126G A134G | 0.14
A24U U57C A92G | 1.29
G20A G106U A111G | 0
G53A A82G A92G A95G | 0.97
U26C A36C A67G A126G | 2.02
U43A A89U A116G | 0.63
G48A U72A A94G | 0.38
C34U A52G A94G A118G | 0.25
A5G U9C A111G | 0.14
G58U A89U A116G A118G | 0.1

Variant | self-cleavage
U19C A66G A67G U120C | 1.04
A24G A92C A114G U127C | 0.04
A52G A59G U102C A114G | 0.21
A56G A64G A116G | 0.89
A4G U87A A91G | 1.81
U19C A30G G74A A95G | 0.26
A11G U12C A95G | 1.19
A95G U102C U132C | 2.43
G15A U19C A90G U100C | 2.29
A52U U72A U122C | 0.11
A30G A96G A134U | 1.79
U9C A51G U57C | 0.29
A23G A51G U57A U108G A110G | 0.02
A63U U100C A126G | 1.97
G48A U102C A110G | 0.19
A111G A114G A125G | 0
A47U U70A A91G A129G | 0.11
A94G U120G A126G | 1.04
U2C U37C A54G | 0.87
A51U A60G A96U C101U | 0.41
U37C A56G U108C U122A | 0.01
A24G A56G A59G A62C A64U A78U A86U | 0.47
A22G U39A A78G U132C | 0.38
A22G A23G A116G | 0.16

Variant | self-cleavage
U2A A96U A116G | 1.72
A82U A90G C105U | 0.01
A13G G73A A110G | 0.13
U49C A54G G65A | 1.39
A78G A92C U103A | 0.04
A11G A110G A111G U127C | 0.02
A66G A111G A114C A117G | 0
A52G A118G A134U | 1.86
G7U U37C A67G A96G U97C A126G | 0.59
A63G A78U U122C | 0.17
A5G A33C A64G A90G | 0.99
A64G A78G A91G A111U | 0.05
C46U A67G U108A U127C | 0.04
U38C U70C U103C | 0.82
A52U U124C A126G | 0.69
A52G A60G U70C A78U C81U A82G | 0.04
U3C A23U U43C A52G A69G A94G | 0.61
A55G A56G A134G | 0
U3C A24G A56G A92G | 1.49
U9C A36G A118G | 1.21
A52G A67G U70C U127C | 0.22
A22G A24G U49A A118G U127C | 0.37
A62G A82U A96G | 0.12
G1A G7A A62G | 1.57

Variant | self-cleavage
A27G A66G U122C | 1.29
G7U A18G A68G | 0.94
A11C A64G A82G A95G U103C U122C | 2.5
A24G A55U G80A U127C | 0.12
U43A A63G A78G | 0.35
A24G A30G A56G | 0.72
A33C A125G U130C | 0.87
A27G A89C A94G U103C A116G | 0.17
U49A A95G A111G | 0.02
U19A A66U A126G | 1.17
A33G A54G A91G | 0.22
A90G U103C A125G | 0.06
A51G A56G U87C A129G | 0.35
G41A A62G A98G | 0.54
U38C U49C U130C | 0.86
A47G U72C A82G U100C | 0.38
A22C A66G U97A | 1.98
G8A U19C U103C | 1.08
U38C A78C A95G A110G | 0.01
A5G A96G A129U | 0.44
A116G A118G A126G | 1.02
A11G U57C A69G | 1.12
U43C G115A U130C A134G | 0.02
U9C U38C A52G | 0.62

Variant | self-cleavage
U70C U102A U131C | 0.24
A18G U102C U131C | 1.31
A67G A94U U127C | 1.25
A18U A59G U70C G115U A117G | 0.01
A11G G58A G83C A90G U108C A114G | 0.06
U37C A55G A62G C76U A117G U122C U139A | 0.09
U9C A24G A60U | 1.43
A116G U132A A140G | 0.2
U2C A54U A90G U108C | 0.03
A5C A118G U122A A135U U139C | 0.87
C35U U87A U131C | 0.72
A30G A33C A66G U70C A118G | 0.26
U39C A56G A62G A63G | 1.49
A82C U103C U122A | 0.04
U12A A36C C46U A82G U102C | 1.21
U38C U122G U131C | 2.25
A5G U12A A51U A59G A114G | 0.25
A22C A56G A66G | 1.11
A27G A60G U72C A82U | 0.23
A62U A82G A94U A125G | 0.24
U57C A68U A116G | 0.69
A33G U49C A117G | 0.94
A23G A55G A82U G123A | 0.23
C10U U43C A54U A60G U131C | 0.67

Variant | self-cleavage
A59U A62G A78U U87C | 0.32
G21U A59G A69G A94G A96G | 1.69
U3C A22G A66G U108C U120C | 0
A22G A59G A95G | 1.02
A23G U38A A89G C109A | 0.43
A47G A92G A114G | 0.11
U12C A90G U102A A129G | 0.13
U43C G53U A110U A126G | 1.01
U72C U103C A111G A140G | 0.01
A27G U49C A95G | 1.86
A36U U49A G138U | 0.27
A24G A66G U102A | 0.27
A24G A55G A56G A62G U87C | 0.61
A11U G58U A94G | 1.12
U26C A52U U108A A111G | 0.1
A89U A111G A125C | 0.02
U38A G84A U103A A116G | 0.38
A52G A95G A96G U102C | 2.05
C16U A24G A36G A89U | 0.92
U49C U72A A82G A116G | 0.09
A18G A64G A82G | 0.46
G44A A52C A64G A69G A92G | 1.24
A22G A24G A63G | 0.49
U12C U43A A111U U130C | 0.03

Variant | self-cleavage
C42U A51G U87A A118U U122C | 0.74
A33G A56G G84C A126G | 0.12
C10U A24C A69G A116G | 0.78
A55G A66G A69G A95G U131A | 1.26
U12C U87G A111G | 0.04
A59G A62G U72A U127C | 0.12
A23G A36U U57A U120C | 1.02
G44A A62G A67G A92G U131C | 1.32
A24G U37C U43C U57C G80A U97C A111G | 0.01
A5G C101U C113U A117G U120A U130C | 0
A51G A54G A129G | 0.85
G21A U39C A56G U87G | 0.59
A23U A33G U38C A98U | 1.46
U38C A59U A62G U72C A95U U108C A114G A117G | 0
A5G A51U C109U U122C | 0.37
U38C A78G U103C U124C | 0.15
U9C A30G A51G | 1.2
A13G A36U A69G | 0.78
A51G A55G U87C U122C | 1.07
A30G A36G U132C | 1.95
U2C A67G U102C A114C | 0
A52C A62U U102A U132C | 0.54
A5G A23G A82U | 0.46
